# Laboratory results taken from PubChem BioAssay AID488969 (Vanderbilt High Throughput Screening Facility, 2010).
# Over roughly 110,000 compounds, “z-score” has its median near -0.1; the highest 2% begin near 2. This is one part of the list. Calls of active or inactive are those of the source.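 The calls were made as follows: active = z-score in the third read window above 3 or below -3; inactive = the rest.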
# Target: Metabotropic glutamate receptor 8 (Rattus norvegicus) (UniProt P70579)
# Test: mGluR8 Gi/Go-coupled signaling modulation – cell-based, rat, thallium flux, HTS, primary screen (AID 488969)
# Details: HEK293 rat mGluR8, GIRK (G protein-gated inwardly rectifying potassium channel) thallium flux, FluoZin2; at 10 µM; stronger effect = higher value; submaximal glutamate (EC20) added with thallium
# Sequence of UniProt P70579 (P70579 whole entry, looked up): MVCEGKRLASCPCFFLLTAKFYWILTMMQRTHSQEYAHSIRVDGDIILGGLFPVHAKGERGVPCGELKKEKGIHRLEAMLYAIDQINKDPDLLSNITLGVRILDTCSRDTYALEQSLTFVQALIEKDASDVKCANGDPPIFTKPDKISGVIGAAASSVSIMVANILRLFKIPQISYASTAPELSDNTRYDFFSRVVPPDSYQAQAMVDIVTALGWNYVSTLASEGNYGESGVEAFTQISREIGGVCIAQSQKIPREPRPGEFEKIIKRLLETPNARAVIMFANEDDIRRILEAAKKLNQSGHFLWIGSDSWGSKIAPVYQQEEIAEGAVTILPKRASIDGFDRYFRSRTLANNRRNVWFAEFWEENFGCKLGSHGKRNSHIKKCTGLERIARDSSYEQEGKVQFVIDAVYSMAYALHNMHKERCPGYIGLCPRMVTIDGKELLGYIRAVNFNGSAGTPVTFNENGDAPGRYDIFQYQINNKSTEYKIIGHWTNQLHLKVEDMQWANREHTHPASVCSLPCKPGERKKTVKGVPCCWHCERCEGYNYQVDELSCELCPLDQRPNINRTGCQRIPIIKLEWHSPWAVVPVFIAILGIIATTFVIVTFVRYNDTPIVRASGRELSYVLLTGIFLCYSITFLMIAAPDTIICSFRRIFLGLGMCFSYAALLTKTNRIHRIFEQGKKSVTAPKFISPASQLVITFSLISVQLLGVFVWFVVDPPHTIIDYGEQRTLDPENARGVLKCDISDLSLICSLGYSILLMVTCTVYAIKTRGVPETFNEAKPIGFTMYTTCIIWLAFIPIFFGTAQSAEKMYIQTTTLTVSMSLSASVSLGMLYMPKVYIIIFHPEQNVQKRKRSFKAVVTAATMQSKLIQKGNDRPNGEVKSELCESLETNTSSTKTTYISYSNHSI
row,SMILES,z-score
1,Cc1nn(CC(=O)OC(C)C(=O)Nc2ccccc2[N+](=O)[O-])c(C)c1[N+](=O)[O-] (stereo unspecified),-0.0274
2,CCc1c(C(=O)N2CCOCC2)csc1C,0.547
3,O=S(=O)(NCC(c1ccco1)N1CCN(c2ccccc2F)CC1)c1ccc2c(c1)OCCO2 (stereo unspecified),-0.722
4,Cc1occc1C(=O)Nc1ccc2c(c1)OCCO2,0.341
5,COCCNC(=O)/C(C#N)=C/c1cccc(NC(=O)c2ccccc2Cl)c1,-0.602
6,COc1cc(OC)cc(C(=O)NNC(=O)NC2CCCCC2)c1,-0.0486
7,CCOc1ccc(N(CC(=O)N2CC=C(c3ccccc3)CC2)S(=O)(=O)c2c(C)noc2C)cc1,-0.285
8,Cn1c(Sc2ccc(Br)cc2)c(C=O)c2ccccc21,-0.409
9,O=C(N/N=C/c1ccccn1)c1cc(-c2ccc3ccccc3c2)n[nH]1,0.0367
10,Cn1c(=N)n(CC(O)c2ccco2)c2ccccc21 (stereo unspecified),-0.143
11,N#C/C(=C/C=C/c1ccccc1)C(=O)Nc1ccccc1,0.0142
12,O=C(Oc1ccccc1)N1CCN(c2ccc(F)cc2)CC1,-0.29
13,O=C(CSc1nnc(-c2ccccc2)n1-c1ccccc1)N1c2ccccc2Sc2ccccc21,-1.52
14,Cn1cc(CNC(=O)C2CCCCC2)cn1,-0.556
15,O=C(Nc1nc2ccccc2s1)c1cc(-c2ccccc2)nn1-c1ccccc1,1.18
16,COc1ccc(CC(=O)N(CC2CCCO2)c2nc3ccccc3s2)cc1 (stereo unspecified),-0.134
17,CCN(C(C)=O)c1cccc2ccccc12,0.317
18,CCCOc1cccc(C(=O)NC(=S)Nc2cccc(NC(=O)c3ccccc3Cl)c2)c1,0.249
19,O=C(Cn1[nH]c(=O)c2ccccc2c1=O)NC1CCCCCC1,0.0122
20,CC/C(=N\NC(=O)c1cc(C)nc2ccccc12)c1ccc(C)s1,-0.17
21,CN(CCC#N)S(=O)(=O)c1ccc2c(c1)c(=O)n(C)c(=O)n2C,-0.372
22,Cc1nc2ccc(NC(=O)Cc3ccc4c(c3)OCCO4)cc2s1,0.0176
23,CC(=O)c1c(C)[nH]c(C(=O)CSc2nc3ccccc3c(=O)n2CCCN2CCOCC2)c1C,0.749
24,O=C(NCc1ccc2c(c1)OCO2)c1cc(-c2ccccc2Cl)on1,-0.432

row,SMILES,z-score
1,Cc1cc(C)nc(N(C#N)Cc2cccc3ccccc23)n1,-1.03
2,Cc1c(C(=O)Nc2nnc(SCc3ccccc3Cl)s2)cccc1[N+](=O)[O-],-0.21
3,CC1CN(S(=O)(=O)c2cccc(C(=O)Nc3ccc4c(c3)CCC4)c2)CC(C)O1 (stereo unspecified),-0.053
4,Cc1cc(C)c2c3c(cn2n1)c(=O)n(C)c(=O)n3C,0.576
5,CCCCCN(C(=O)COC(=O)c1ccc(Br)o1)c1c(N)n(CCCC)c(=O)[nH]c1=O,-0.0299
6,O=C(CN1CCCCC1)Nc1cccc2c1OCO2,-0.0222
7,Cc1cc(NC(=O)c2ccco2)ccc1NC(=O)Cc1cccs1,-0.307
8,NC(=S)N=Nc1c(O)[nH]c2ccc(F)cc12,1.48
9,CCOC(=O)C1=C(CN2CCSCC2)NC(=O)NC1c1cc(C)ccc1C (stereo unspecified),-0.515
10,O=[N+]([O-])c1cc(-c2cnc3ccccc3n2)ccc1Oc1ccc(Cl)cc1,0.419
11,N/C(=N\OC(=O)c1ccc(Cl)c(Cl)c1)c1cccnc1,-0.145
12,COCc1nc(-c2ccc(-c3ccccc3)nc2OC)no1,0.212
13,Cc1c([N+](=O)[O-])cc(C(=O)N2CCOCC2)cc1[N+](=O)[O-],-0.241
14,COc1ccccc1N1CCN(c2nc3ccccn3c(=O)c2C=O)CC1,-0.197
15,N#Cc1c(N)c(C#N)c(-c2ccc(O)cc2)c2c1CCCC2,-0.574
16,CCN(CC)CCN(Cc1cc2cc(C)ccc2[nH]c1=O)C(=O)Nc1ccccc1OC,0.12
17,CCOC(=O)c1ccc(NC(=S)NC(=O)COc2ccccc2)cc1,active: 3.05
18,CCc1ccccc1NC(=O)c1cnc2scc(C)n2c1=O,-1.42
19,COc1ccc(S(=O)(=O)N2CCC(C(=O)Nc3ccc(OC)c(OC)c3)CC2)cc1C,0.0355
20,Cc1cc2ccccc2nc1SCC(=O)Nc1nc(-c2ccccc2)cs1,-0.238
21,Cc1cccc(C(=O)Nc2sc(C)c(-c3ccccc3)c2C#N)c1,-0.223
22,COc1ccccc1C1=Nc2cccc3cccc(c23)N1,-0.248
23,Cc1ccc(-n2c(SCc3cn4ccsc4n3)nc3ccccc3c2=O)cc1,-2.14
24,O=C(Nc1cccnc1)c1ccc(Br)s1,-0.00938

row,SMILES,z-score
1,Cc1ccc(/C=N/NC(=O)c2ccoc2C)s1,0.516
2,COCCN=c1scc(-c2ccccc2)n1/N=C/c1c[nH]c2ccccc12,2.05
3,COc1cc(S(=O)(=O)NCc2ccccc2)ccc1Br,-0.127
4,O=C(Cn1ccc2ccccc2c1=O)NCCC(=O)Nc1ccc2c(c1)OCCO2,0.489
5,CC(C)c1ccc(NC(=S)NCCc2c[nH]c3ccccc23)cc1,-0.264
6,O=C1CC(c2ccccc2)CC(O)=C1C=NC1CCCC1 (stereo unspecified),-0.103
7,O=C1c2cccc3cccc(c23)C(=O)N1OS(=O)(=O)c1ccccc1,-0.152
8,Cc1ccccc1OCCCSc1nc2ccccc2[nH]1,0.419
9,COc1cccc(C2(CSc3nnc(-c4cc(OC)c(OC)c(OC)c4)o3)OCCO2)c1,-0.328
10,Nn1c(SCC(=O)N2CCOCC2)nnc1-c1ccc(Cl)cc1Cl,0.0848
11,CC(=O)Nc1cccc(NC(=O)CSc2nnnn2C(C)C)c1,0.073
12,CCOC(=O)c1c(-c2cccs2)csc1NC(=O)CC(C)C,0.443
13,Cc1nn(CC(=O)Nc2sc3c(c2C#N)CCC(C(C)(C)C)C3)c(C)c1[N+](=O)[O-] (stereo unspecified),-0.313
14,CC(C)c1ccccc1OCC(=O)NCC(c1cccs1)N1CCOCC1 (stereo unspecified),-0.448
15,Cc1c(C#N)c2ncn(CC#N)c(=O)c2n1-c1ccccc1,active: 3.28
16,Cc1ccc(Oc2ccccc2)c(NC=O)c1,-0.608
17,Cc1cccc(NC(NC(=O)Cc2ccccc2)C(Cl)(Cl)Cl)c1 (stereo unspecified),-0.0674
18,N#CC1=C(SCC(N)=O)NC(=O)CC1c1ccccc1Cl (stereo unspecified),0.0189
19,COc1ccc(NC(C)=O)cc1NC(=O)CN1CCN(C(=O)c2ccco2)CC1,-0.164
20,CCc1cccc(NC(=O)NC(=O)Cn2nnc(C(=O)OC)c2C(=O)OC)c1,-0.158
21,Cc1ccccc1CS(=O)(=O)c1snnc1C,-0.141
22,COc1ccc(C)cc1NC(=O)CSc1nnc(CC(=O)Nc2ccccc2C)n1C,-0.0136
23,CCn1cc([N+](=O)[O-])c(C(=O)N2N=C(c3ccc4ccccc4c3)CC2c2cc(Br)ccc2O)n1 (stereo unspecified),-0.0686
